Results as given in the supplement of paper PMC9446081.
The whole screen tested about 39,000 compounds, of which about 220 (0.56%) showed activity. This is one part of the list.

tested on: Escherichia coli K-12 BW25113; assay: relative growth (OD600 normalised to plate interquartile mean) (fraction); higher = less growth inhibition, active = 0.2 or less; details: 50 µM; LB; incubation time: overnight (16-24 h)
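Further: static incubation at 37 °C against the wild-type strain, values averaged over two biological replicates.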

| SMILES | relative growth |
| --- | --- |
| CC(=O)N1[C@H](CO)[C@@H](c2ccccc2)[C@H]1CNC(=O)CN1CCOCC1 | inactive: 1.02 |
| C[C@H](CO)N1C[C@H](C)[C@H](CN(C)C(=O)Nc2cccc3ccccc23)Oc2ccc(NC(=O)Cn3cnnn3)cc2C1=O | inactive: 1.01 |
| NC(Cc1cc(I)c(O)c(I)c1)C(=O)O.O.O (stereo not drawn) | inactive: 0.929 |
| COc1ccc(NC(=O)N(C)C[C@@H]2Oc3ccc(NS(=O)(=O)c4c(C)noc4C)cc3CC(=O)N([C@@H](C)CO)C[C@H]2C)cc1 | inactive: 0.993 |
| CS(=O)(=O)N1Cc2cncn2C[C@H](COCC(=O)N2CCCC2)C1 | inactive: 0.987 |
| C[C@H](CO)N1C[C@H](C)[C@H](CN(C)Cc2ccc(Cl)c(Cl)c2)Oc2ccc(NS(=O)(=O)c3cccs3)cc2CC1=O | inactive: 1.01 |
| O=C(CN1CCOCC1)NCC[C@@H]1CC[C@H](NS(=O)(=O)c2ccc(Cl)cc2)[C@@H](CO)O1 | inactive: 0.981 |
| C[C@H]1CN([C@@H](C)CO)C(=O)CCCn2nncc2CO[C@@H]1CN(C)S(=O)(=O)c1cccc(C#N)c1 | inactive: 1.01 |
| C[C@@H]1ON(c2ccc(I)cc2)[C@H](c2ccc(OC(=O)OC(C)(C)C)cc2)[C@H]1C(=O)N1C(=O)OC[C@H]1Cc1ccccc1 | inactive: 1.01 |
| C[C@@H]1CCCCO[C@H](CN(C)C(=O)NC2CCCCC2)[C@H](C)CN([C@H](C)CO)C(=O)c2cc(NS(=O)(=O)c3cccs3)ccc2O1 | inactive: 1.02 |
| C[C@@H]1CCCCO[C@H](CN(C)S(=O)(=O)c2ccc(Cl)cc2)[C@@H](C)CN([C@H](C)CO)C(=O)c2cc(NS(=O)(=O)c3ccc(F)cc3)ccc2O1 | inactive: 1.02 |
| C[C@@H]1CN([C@@H](C)CO)C(=O)c2cccc(NS(=O)(=O)c3ccccc3)c2O[C@H]1CN(C)Cc1ccncc1 | inactive: 0.995 |
| Cc1noc(C)c1S(=O)(=O)N(C)C[C@H]1Oc2ccc(NS(=O)(=O)c3ccc(Cl)cc3)cc2CC(=O)N([C@H](C)CO)C[C@@H]1C | inactive: 0.991 |
| Cc1noc(C)c1NC(=O)N(C)C[C@H]1OCCCC[C@@H](C)Oc2ccc(NS(=O)(=O)c3ccc(Cl)cc3)cc2C(=O)N([C@@H](C)CO)C[C@H]1C | inactive: 1 |
| CC(C)NC(=O)N(C)C[C@H]1Oc2ccc(NS(=O)(=O)c3ccc(F)cc3)cc2CC(=O)N([C@H](C)CO)C[C@H]1C | inactive: 0.979 |
| COc1ccc(S(=O)(=O)Nc2ccc3c(c2)CC(=O)N([C@H](C)CO)C[C@H](C)[C@@H](CN(C)C(=O)Nc2c(C)noc2C)O3)cc1 | inactive: 1.01 |
| CN1N=C2CCN(C(=O)[C@@H](COCc3ccccc3)NC(=O)C(C)(C)N)C[C@@]2(Cc2ccccc2)C1=O | inactive: 1.01 |
| C[C@@H]1CN([C@H](C)CO)C(=O)c2cccc(NC(=O)C3CC3)c2O[C@H]1CN(C)Cc1ccc(Oc2ccccc2)cc1 | inactive: 0.983 |
| C[C@@H]1CN([C@H](C)CO)C(=O)Cc2cc(NC(=O)Nc3ccc4c(c3)OCO4)ccc2O[C@@H]1CN(C)Cc1ccc(Oc2ccccc2)cc1 | inactive: 0.987 |
| C[C@@H]1CCCCO[C@@H](CN(C)C(=O)Nc2ccc(F)cc2)[C@H](C)CN([C@@H](C)CO)C(=O)c2cc(NC(=O)Nc3ccc(C(F)(F)F)cc3)ccc2O1 | inactive: 1.03 |

| SMILES | relative growth |
| --- | --- |
| Cn1c(=O)cc(N2CCC[C@@H](N)C2)n(Cc2cc(F)ccc2C#N)c1=O | inactive: 0.979 |
| C[C@@H]1CN([C@@H](C)CO)S(=O)(=O)c2ccc(C#CCN(C)C)cc2O[C@H]1CN(C)Cc1ccc(F)cc1 | inactive: 1.01 |
| N#Cc1ncoc1N1CCC(C(N)=O)CC1 | inactive: 0.869 |
| C[C@@H]1CN([C@@H](C)CO)C(=O)Cc2cc(NS(=O)(=O)c3ccc(F)cc3)ccc2O[C@@H]1CN(C)Cc1ccc(-c2ccccc2)cc1 | inactive: 1.01 |
| O=C1CNC(=S)N1c1ccccc1 | inactive: 0.968 |
| CCCN(C)C[C@H]1OCCCC[C@H](C)Oc2ccc(NS(C)(=O)=O)cc2C(=O)N([C@H](C)CO)C[C@H]1C | inactive: 0.99 |
| C[C@H]1COC(=O)[C@H](Cc2ccc(F)cc2)CC=CC[C@@H](CC(=O)N[C@H](CO)Cc2ccccc2)C(=O)N1 | inactive: 1.01 |
| COc1cccc(NC(=O)Nc2ccc3c(c2)C(=O)N(C)C[C@@H](OC)[C@H](C)CN(CCC(F)(F)F)[C@H](C)CO3)c1 | inactive: 0.987 |
| COc1ccc(S(=O)(=O)Nc2ccc3c(c2)C(=O)N([C@H](C)CO)C[C@H](C)[C@@H](CN(C)S(=O)(=O)c2cn(C)cn2)OCCCC[C@@H](C)O3)cc1 | inactive: 0.998 |
| C[C@@H]1CN([C@H](C)CO)C(=O)CCCn2nncc2CO[C@H]1CN(C)C(=O)Nc1ccc(N2CCN(C)CC2)cc1 | inactive: 0.962 |
| Cc1noc(C)c1S(=O)(=O)Nc1ccc2c(c1)C(=O)N([C@H](C)CO)C[C@H](C)[C@H](CN(C)CC1CCCCC1)OCCCC[C@H](C)O2 | inactive: 0.983 |
| COc1cccc(S(=O)(=O)N(C)C[C@@H]2Oc3ncc(-c4ccc(F)cc4)cc3C(=O)N([C@H](C)CO)C[C@@H]2C)c1 | inactive: 1.02 |
| COc1ccccc1NC(=O)N(C)C[C@@H]1Oc2ncc(Br)cc2C(=O)N([C@@H](C)CO)C[C@@H]1C | inactive: 1.01 |
| CO[C@@H]1CN(C)C(=O)c2cc(NS(C)(=O)=O)ccc2OC[C@H](C)N(C(=O)c2ccc3c(c2)OCO3)C[C@H]1C | inactive: 0.975 |
| C[C@H]1CN([C@@H](C)CO)C(=O)c2ccccc2-c2ccccc2CO[C@@H]1CN(C)C(=O)Nc1cccc(F)c1 | inactive: 1.02 |
| Cc1noc(C)c1NC(=O)N(C)C[C@@H]1Oc2ccc(NC(=O)Cn3cnnn3)cc2CC(=O)N([C@@H](C)CO)C[C@H]1C | inactive: 0.944 |
| C[C@@H]1CN([C@@H](C)CO)S(=O)(=O)c2ccc(Br)cc2O[C@@H]1CN(C)C(=O)c1ccc(F)cc1 | inactive: 1.01 |
| Cc1noc(C)c1NC(=O)N(C)C[C@H]1OCCCC[C@@H](C)Oc2ccc(NC(=O)NC3CCCCC3)cc2C(=O)N([C@H](C)CO)C[C@@H]1C | inactive: 0.981 |
| C[C@@H]1CN([C@H](C)CO)C(=O)Cc2cc(NC(=O)Nc3ccc(F)cc3)ccc2O[C@@H]1CN(C)C(=O)Nc1ccc(C(F)(F)F)cc1 | inactive: 0.993 |
| COc1ccc2c3c([nH]c2c1)[C@H](CO)N(C[C@]13CN(Cc2nccs2)C1)S(=O)(=O)c1ccc(cc1)C | inactive: 1.03 |

| SMILES | relative growth |
| --- | --- |
| C[C@H]1CCCCO[C@@H](CN(C)C(=O)Nc2ccc(C(F)(F)F)cc2)[C@@H](C)CN([C@@H](C)CO)C(=O)c2cc(NS(=O)(=O)c3ccc(Cl)cc3)ccc2O1 | inactive: 1 |
| Cc1noc(C)c1S(=O)(=O)N(C)C[C@H]1Oc2ccc(NS(C)(=O)=O)cc2C(=O)N([C@H](C)CO)C[C@@H]1C | inactive: 1 |
| C[C@H]1O[C@@H](OC[C@H]2O[C@@H](OC[C@]3(C)[C@H]4CC[C@@]5(C)[C@H](CC[C@H]6C7=CC(C)(C)CC[C@]7(C(=O)O)CC[C@@]65C)[C@@]4(C)CC[C@@H]3O)[C@@H](O)[C@@H](O)[C@@H]2O)[C@@H](O)[C@@H](O)[C@@H]1O | inactive: 0.98 |
| CC(=C/C(=O)O)/C=C/c1ccccc1 | inactive: 0.985 |
| COc1ccc(CN(C)C[C@@H]2Oc3ccc(NS(=O)(=O)c4cn(C)cn4)cc3C(=O)N([C@H](C)CO)C[C@H]2C)cc1 | inactive: 0.986 |
| CNC[C@H]1Oc2cc(C#CC(C)(C)O)ccc2S(=O)(=O)N([C@@H](C)CO)C[C@@H]1C | inactive: 1 |
| COc1ccc(NC(=O)Nc2ccc3c(c2)C(=O)N([C@@H](C)CO)C[C@H](C)[C@@H](CN(C)Cc2ccc(C(=O)O)cc2)OCCCC[C@@H](C)O3)cc1 | inactive: 0.96 |
| COC(=O)c1cc(S(=O)(=O)N2CCOCC2)cn1C | inactive: 0.978 |
| C[C@@H]1CN([C@@H](C)CO)S(=O)(=O)c2ccc(Br)cc2O[C@H]1CN(C)C(=O)C1CCOCC1 | inactive: 0.976 |
| CNC(=N)NCCC[C@H](N)C(=O)O | inactive: 0.987 |
| C/C(=C\CC[C@@H](C)[C@H]1C[C@@H](O)[C@@]2(C)[C@H]3CC[C@H]4C(C)(C)[C@@H](O[C@@H]5O[C@@H](CO[C@H]6O[C@@H](CO)[C@@H](O)[C@@H](O)[C@@H]6O)[C@@H](O)[C@@H](O)[C@@H]5O)CC[C@@]45C[C@@]35C[C@@H](O)[C@]12C)C(=O)O[C@H]1O[C@@H](CO)[C@@H](O)[C@@H]1O | inactive: 0.993 |
| C[C@@H]1CN([C@@H](C)CO)C(=O)c2cc(NC(=O)Nc3ccc(C(F)(F)F)cc3)ccc2O[C@@H](C)CCCCO[C@H]1CN(C)C(=O)c1ccccc1 | inactive: 1.05 |
| C[C@@H]1CN([C@@H](C)CO)C(=O)c2cc(NC(=O)CCC(F)(F)F)ccc2O[C@@H](C)CCCCO[C@@H]1CN(C)CC1CCCCC1 | inactive: 0.932 |
| COc1ccc(CN(C)C[C@@H]2OCCCC[C@H](C)Oc3ccc(NS(=O)(=O)c4ccc(OC)cc4)cc3C(=O)N([C@@H](C)CO)C[C@@H]2C)cc1 | inactive: 0.994 |
| CCCNC(=O)N(C)C[C@H]1Oc2cc(C#Cc3ccccn3)ccc2S(=O)(=O)N([C@@H](C)CO)C[C@@H]1C | inactive: 0.992 |
| Cc1cc(N)n(-c2nc(=O)cc(C)[nH]2)n1 | inactive: 0.903 |
| O[C@@H](COc1cccc2ncccc12)CN1CCN([C@@H]2c3ccccc3[C@@H]3[C@H](c4ccccc42)C3(F)F)CC1 | inactive: 0.99 |
| C[C@H]1CN([C@@H](C)CO)C(=O)c2cc(NC(=O)Nc3cccc4ccccc34)ccc2O[C@H]1CN(C)Cc1ccc(-c2ccccc2)cc1 | inactive: 0.997 |
